{
  "source": "the supplement of paper PMC11417369",
  "note": "± gives the standard deviation of the averaged measurements. Some of the results follow.",
  "data": [
    {"system": "PfAP2-LT AP2 domain (GST-tagged)", "experiment": "gcPBM binding intensity (ln(normalized median fluorescence intensity)); higher = stronger DNA binding", "in_short": "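Binding intensity values are the highest Masliner-normalised natural-log median intensity among replicate spots of either probe orientation. The binding step lasted 1 h in 1× PBS with 1% milk, 0.2 mg/ml BSA, 0.5% salmon testes DNA and 0.03% Triton X-100, using GST-tagged P. falciparum DNA-binding domains expressed in E. coli on an Agilent 4 × 180k array of primer-extended double-stranded 36-bp intergenic genomic probes plus negative controls. Alexa488 anti-GST antibody and a 488 nm scan detected bound protein.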", "values": [
      {"sequence": "TCTTATATATTTATTTGTACATATATATATATATAT [XGTACX_site7214]", "gcPBM binding intensity (ln)": "9.07 ± 0.49"},
      {"sequence": "AACAACTATTAATTTACACACATGTATTTATTTTAC [CACACA_site5683]", "gcPBM binding intensity (ln)": "9.3 ± 0.4"},
      {"sequence": "TGTATTACGAAAAAATGTACAGAAAAAGAAACAAAA [XGTACX_site2777]", "gcPBM binding intensity (ln)": "8.82 ± 0.56"},
      {"sequence": "TTTGTCATAAGCAATGCATGTAAGTTTCTGACATTA [TGCATGCA_site1007]", "gcPBM binding intensity (ln)": "8.47 ± 0.29"},
      {"sequence": "TGGGATAGATCATTTACACACACAAAAAAAAAAAAA [CACACA_site2140]", "gcPBM binding intensity (ln)": "9.25 ± 0.42"},
      {"sequence": "TCTAATAATAAATACACACACATATATATTTATATA [CACACA_site5169]", "gcPBM binding intensity (ln)": "9.15 ± 0.23"},
      {"sequence": "TTTTTTTTTGAAAAAAGTACTTAATTTTTAAGAAGA [XGTACX_site3591]", "gcPBM binding intensity (ln)": "7.83 ± 0.3"},
      {"sequence": "AAGGAATGCATATAGGTGCTACACATAAAAATAAAA", "gcPBM binding intensity (ln)": "9.02 ± 0.6"},
      {"sequence": "TACTTTTTTCCTATTATGTTTCTTATTTTTATAAAT [XGTACX_negctrl_site561]", "gcPBM binding intensity (ln)": "8.69 ± 0.49"},
      {"sequence": "TTAAGTAGTACATACACACACATATACAAAAAGAAA [CACACA_site3972]", "gcPBM binding intensity (ln)": "9.63 ± 0.49"},
      {"sequence": "GTCAACAAGAATTAAGTGCATAATTTTTTATTAAAT [GTGCAC_site9492]", "gcPBM binding intensity (ln)": "8.64 ± 0.43"},
      {"sequence": "ATACAGATAGGATGCACACATAATTCAAATACAATA [CACACA_site4531]", "gcPBM binding intensity (ln)": "9.28 ± 0.49"},
      {"sequence": "ATATAATAATAATATTGTACAATAAAAAATATATAT [XGTACX_site7350]", "gcPBM binding intensity (ln)": "8.89 ± 0.47"},
      {"sequence": "AGTAATAATCGGCATGCATGTCAGTGGTAGTATATA [TGCATGCA_site312]", "gcPBM binding intensity (ln)": "9.35 ± 0.4"},
      {"sequence": "ATGTCAAGAACTGAACGTACAAACTTTGTAATATTG [XGTACX_site8754]", "gcPBM binding intensity (ln)": "9.01 ± 0.39"},
      {"sequence": "AAATTTTATGTATAATGTACACATAAATTTTTCTTT [XGTACX_site7266]", "gcPBM binding intensity (ln)": "8.54 ± 0.43"},
      {"sequence": "GGAATATTAAAAAAATGTACAAAAAATAATATCCAT [XGTACX_site2596]", "gcPBM binding intensity (ln)": "9.01 ± 0.4"},
      {"sequence": "AGTAAAAAAAAAAAAAAAAAAAAAAAAAAAAAAAAA [GTGCAC_negctrl_site147]", "gcPBM binding intensity (ln)": "8.12 ± 0.028"},
      {"sequence": "TATTAATATTTTTGTTGTACTTAAAAATGATGGTAG [XGTACX_site3501]", "gcPBM binding intensity (ln)": "8.37 ± 0.37"},
      {"sequence": "TATTATTTTAATTATTCACACATTATTATAAAAATT [CACACA_site5538]", "gcPBM binding intensity (ln)": "8.48 ± 0.45"},
      {"sequence": "CATATACACGAACACACACACATATAAATAAATATA [CACACA_site6379]", "gcPBM binding intensity (ln)": "9.74 ± 0.29"},
      {"sequence": "ATATATACGTATGAATGTATATTTGTTTGAATTTTT [CACACA_negctrl_site524]", "gcPBM binding intensity (ln)": "8.79 ± 0.37"},
      {"sequence": "TTTATATATTAATATGCACACACAAGAAGTAATTAT [CACACA_site9045]", "gcPBM binding intensity (ln)": "9.2 ± 0.3"},
      {"sequence": "AATAATAACATACAGACACACACGTAAAAGCACGTG [CACACA_site253]", "gcPBM binding intensity (ln)": "9.29 ± 0.43"},
      {"sequence": "AATGGGTAAACATACACACACACATATATATATATA [CACACA_site1991]", "gcPBM binding intensity (ln)": "10.2 ± 0.11"}
    ]}
  ]
}
